The RNAGym collection of RNA variant scans (doi:10.7554/elife.90254)
The source gives no read counts; variants with many changes may rest on few reads.

B1: LINE1-full (parent)
chain: UACGUAGGUGGUUUUCCCCUGAUAGUGCUAAGGGGGCCUGGAAGUUUGGACUGGGCAGAGCUCAACACAGCGUGGCAAAGUGGCUGUGGCUAGACUGCCUCUCUGGAUUCCUCGUCACUCAGCAGGGCAUCUCUGAGAGAAAUGCC

Variants of: B1
Assay: self-cleavage, relative activity (ratio to wild type); higher = more cleavage; in vitro, sequencing; the parent is a self-cleaving ribozyme

Row | Variant | self-cleavage
1 | A43U A94U G127A | 0
2 | A43U C61U A69G A77G U143C | 0.6
3 | A43U G58U G60A | 0.03
4 | A43U G74U U96A A117C U134C | 0.06
5 | A43U G97A U102A | 0.19
6 | A43U U45C U81G | 1.08
7 | A43U U46A U62A U109C U143A | 0.05
8 | A43U U47A C63A U112C A121G | 0.05
9 | A43U U47A U115C A121U | 0.95
10 | A43U U47C A57U A117G | 0
11 | A43U U47C A65U A140C | 0
12 | A43U U52A G54U U115A U132G | 0.55
13 | A43U U62C U81C U85A | 0.09
14 | A43U U62C U115C | 0.19
15 | A43U U73C A77G U108C G127U | 2.45
16 | A43U U85C U115C | 0.24
17 | A43U U91A U119G | 0.36
18 | A43U U100C A117U | 1.95
19 | A43U U100C U143C | 1.38
20 | A43U U119A A141G | 2.87
21 | A43U U119C G125A | 1.18
22 | A43U U134A A142C | 0.74
23 | G44A A50G A65G G105U | 0.04
24 | G44A A57G U134A | 0.84

Row | Variant | self-cleavage
25 | G44A A65G A69G | 0.02
26 | G44A U45G A124G | 1.01
27 | G44A U46C A67C | 0.12
28 | G44A U62A U91C A138G | 0.02
29 | G44A U73C A94G | 0.65
30 | G44A U96C A136G | 0.19
31 | G44A U100C G114U A124G A142G | 1.69
32 | G44U A64G A136U | 0.26
33 | G44U A69G C98U | 0.08
34 | G44U U45C A141G | 1.66
35 | G44U U52A U81C U108C | 1.59
36 | G44U U91A A92U U104G | 0.68
37 | U45A A50G A79U | 0.48
38 | U45A A50U U115A A138G | 1.06
39 | U45A A57G U119C U132A A141U | 0
40 | U45A A64U U91C | 0.03
41 | U45A A65U U73C A78G | 0.33
42 | U45A A67G A121G | 0.18
43 | U45A A69G U81A | 0.28
44 | U45A A69U U108C U119A | 0.05
45 | U45A A77G A78G | 1.59
46 | U45A A77G C113G | 1.93
47 | U45A A78G C101A U112C U134C | 1.31
48 | U45A A78G G135A | 1.13

Row | Variant | self-cleavage
49 | U45A A79G C123U A140G | 0.69
50 | U45A A92G U132C G144A | 0
51 | U45A A94G U100C | 0.24
52 | U45A A121G U132C | 1.55
53 | U45A A121U U134C | 1.15
54 | U45A C90U U115C U134C A140G | 0.01
55 | U45A G49C A69U A138G | 0.05
56 | U45A G75U U134A | 0.35
57 | U45A G106A A138G | 1.24
58 | U45A G127A U130A | 1.4
59 | U45A U46C C61U A67G C84A A142G | 0.04
60 | U45A U52A A92G A140G A141G | 0.08
61 | U45A U52A G105A A138G A141G | 0.66
62 | U45A U81A U100C | 2.8
63 | U45A U85A U87A U102C | 0.16
64 | U45A U85C A142G | 0.19
65 | U45A U85C G127A | 0.13
66 | U45A U96A U132C | 0.05
67 | U45A U104A A124G | 0.55
68 | U45A U108C U115A | 1.41
69 | U45A U115C U143C | 0.87
70 | U45A U132C A136U | 1.15
71 | U45C A57C A140G | 0.11
72 | U45C A57G A59U U62C | 0

Row | Variant | self-cleavage
73 | U45C A57G C68U U87A | 0.07
74 | U45C A57G G72A U104A | 0.5
75 | U45C A57G U109A C128U U143C | 0.14
76 | U45C A59G G127U | 0.08
77 | U45C A59G U119C | 0.17
78 | U45C A59G U134C A138G | 0
79 | U45C A59U A92U | 0.52
80 | U45C A59U U96A | 0.08
81 | U45C A64C U109C U115A A142G | 0
82 | U45C A64G U102C | 0.46
83 | U45C A64U A69G C110G A138U | 0
84 | U45C A64U A79G U109G | 0.15
85 | U45C A64U A136G | 0.45
86 | U45C A64U U119C A129G | 0.45
87 | U45C A65G A124U | 0
88 | U45C A65G G127U | 0.06
89 | U45C A65G U132C | 0
90 | U45C A65U C90U | 0.01
91 | U45C A67G A78G | 0.2
92 | U45C A67G A79U | 0.83
93 | U45C A67G A107G | 0.28
94 | U45C A69C U132C | 0.15
95 | U45C A69G A79G | 0
96 | U45C A69G A138G | 0

Row | Variant | self-cleavage
97 | U45C A69G A140G | 0.92
98 | U45C A69G G126A | 0.41
99 | U45C A69G G137A | 1.56
100 | U45C A69G U112C A140U | 0
101 | U45C A77C G88A C95U U119C | 0.01
102 | U45C A77G A78U U87C U112A A117U | 0.25
103 | U45C A77G U108C U130A | 1.67
104 | U45C A77U U81A U115C U134C | 2.68
105 | U45C A77U U100A | 1.06
106 | U45C A78G U102A U108C | 0
107 | U45C A78U U91A A138G | 0.72
108 | U45C A79G A107G | 2.09
109 | U45C A79G C90U A107G U112A C133U | 0.07
110 | U45C A79G G88C G122A | 0.1
111 | U45C A79G U104C | 0
112 | U45C A79U G83A | 1.1
113 | U45C A92G U132C | 0.11
114 | U45C A92U A129G A140G | 0.84
115 | U45C A92U A136U | 0.62
116 | U45C A94G U130C C145A | 0.77
117 | U45C A94U A136G | 0.17
118 | U45C A107U A117G U143G | 0
119 | U45C A124G A138G | 1.02
120 | U45C A124G A142G | 0.57

Row | Variant | self-cleavage
121 | U45C C61U A121G | 0.02
122 | U45C C68U A141U | 0.14
123 | U45C C71U C76U A78G | 0.52
124 | U45C C84U C90G A140G | 0.08
125 | U45C C98U G126A | 0.43
126 | U45C C103A A107G | 1.21
127 | U45C C113U A124G | 1.35
128 | U45C C113U A136G | 1.32
129 | U45C C116A A121G | 1.92
130 | U45C C131A U132C | 1.65
131 | U45C G49U U100C | 1.62
132 | U45C G53A U96C | 0.09
133 | U45C G53A U115A | 0.46
134 | U45C G55A A59G U115A | 0.08
135 | U45C G55U U100C | 0.16
136 | U45C G70A U112A A117G A129U A138C | 0
137 | U45C G82A A140G | 1.08
138 | U45C G83A C84A U85C | 0.16
139 | U45C G86A A117G | 0.04
140 | U45C G93A U132C | 0.07
141 | U45C U46A A57U A124G | 0
142 | U45C U46C A79G U87A | 0.16
143 | U45C U46C G89A | 0.07
144 | U45C U47A A94G A121C | 0.75

Row | Variant | self-cleavage
145 | U45C U47A G74A U81C | 0.97
146 | U45C U47C A121U U134A | 1.6
147 | U45C U47C G72U U115A | 1.05
148 | U45C U52A A94G | 0
149 | U45C U52A U73A | 1.88
150 | U45C U52C A59U U96A | 0.11
151 | U45C U52C G83A A136G | 1.48
152 | U45C U52C U87A | 0.23
153 | U45C U62A A67G U115A A141G | 0
154 | U45C U62C C71A U132A | 0.03
155 | U45C U62C C84A U109C A142G | 0.03
156 | U45C U62C U119A U130C U132C | 0
157 | U45C U62G C113A | 0.03
158 | U45C U73A A94G | 0.15
159 | U45C U73A G88A | 0.07
160 | U45C U73A U108C | 2.67
161 | U45C U73C G75C U104A | 1.31
162 | U45C U81C G122C C128G | 0.98
163 | U45C U85A A94G A129G | 0
164 | U45C U85A A136G A142G U143A | 0
165 | U45C U85A A140U | 0.08
166 | U45C U85C A94G C145U | 0.24
167 | U45C U85C A136G | 0.47
